Laboratory results as given in patent US20250221953A1 (The University of Chicago, priority 2022, published 2025).

The molecules below were run on PD-1^+ Jurkat T cells co-cultured with H596 (PD-L1^+) cells (assay: 1st screen 1b: rescue of PD-L1/PD-1 dependent exhaustion of PD-1+ Jurkat T cells in co-culture (IL-2 ELISA)). Details: 1st screen 1b (Table 4): rescue of PD-L1/PD-1 dependent exhaustion of PD-1 expressing Jurkat T cells co-cultured with PD-L1-expressing H596 cells.
Format: cell-based, human

Structure (SMILES) | Relative changed percentage (%)
N[C@@H](Cc1cc(I)c(Oc2ccc(O)c(I)c2)c(I)c1)C(=O)[O-].[Na+] | 5.58
Cl.NCCc1c[nH]c2ccc(O)cc12 | −47.01
Cc1cc2nc3c(=O)[nH]c(=O)nc-3n(C[C@H](O)[C@H](O)[C@H](O)COP(=O)([O-])OP(=O)([O-])OC[C@H]3O[C@@H](n4cnc5c(N)ncnc54)[C@H](O)[C@@H]3O)c2cc1C.[Na+].[Na+] | −17.86
Nc1nc2c(ncn2[C@@H]2O[C@@H]3COP(=O)([O-])O[C@H]3[C@H]2O)c(=O)[nH]1.[Na+] | 161.1621
O=C(O)CCCCC1CCSS1 (racemic) [DL-6,8-Thioctic Acid] | 20.32
O=C(O)CC(O)C(=O)O (racemic) [DL-MALIC ACID] | −54.9
CC(O)CC(=O)O (centres unmarked) [3-HYDROXYBUTYRIC ACID] | −38.35
C[C@]12CCC(=O)C[C@@H]1CC[C@@H]1[C@@H]2CC[C@]2(C)[C@@H](O)CC[C@@H]12 [5ALPHA-DIHYDROTESTOSTERONE (DHT)/DHT] | −28.08
C[C@]12CCC(=O)C=C1CC[C@@H]1[C@@H]2CC[C@@]2(C)[C@H]1CC[C@]2(O)C(=O)CO [11-DEOXYCORTISOL/Cortexolone, 11-DEOXYCORTISOL] | −56.72
CC(=O)[C@@]1(O)CC[C@H]2[C@@H]3CCC4=CC(=O)CC[C@]4(C)[C@H]3CC[C@@]21C [17A-HYDROXYPROGESTERONE] | −28.91
Cc1cc(O)cc2c1O[C@](C)(CCC[C@H](C)CCC[C@H](C)CCCC(C)C)CC2 [(+)-DELTA-TOCOPHEROL] | −31.64
Cc1c(O)cc2c(c1C)O[C@](C)(CCC[C@H](C)CCC[C@H](C)CCCC(C)C)CC2 [(+)-GAMMA-TOCOPHEROL] | −68.17
CC1=CCCC(C)(C)C1/C=C/C(C)=C/C=C/C(C)=C/C=C/C=C(C)/C=C/C=C(C)/C=C/C1=C(C)CCCC1(C)C (centres unmarked) [A-CAROTENE] | −7.399
CC1=C[C@H](O)CC(C)(C)C1/C=C/C(C)=C/C=C/C(C)=C/C=C/C=C(C)/C=C/C=C(C)/C=C/C1=C(C)CCCC1(C)C (some centres unmarked) [A-CRYPTOXANTHIN] | 0.7068
CC(C)=O [ACETONE] | 54.13
CC(=O)OCC[N+](C)(C)C.[Cl-] [ACE[…]] | 46.02
Nc1ncnc2c1ncn2[C@@H]1O[C@H](CO)[C@@H](O)[C@H]1O [ADENOSINE FREE BASE] | −41.49
CCO [ALCOHOL] | −5.939
C[C@]12CCC(=O)C=C1CC[C@@H]1[C@@H]2CC[C@]2(C)C(=O)CC[C@@H]12 [ANDROSTENEDIONE] | −8.443
CC[C@H](C)[C@H](NC(=O)[C@H](Cc1ccc(O)cc1)NC(=O)[C@@H](NC(=O)[C@H](CCCNC(=N)N)NC(=O)[C@@H](N)CC(=O)O)C(C)C)C(=O)N[C@@H](Cc1cnc[nH]1)C(=O)N1CCC[C@H]1C(=O)N[C@@H](Cc1ccccc1)C(=O)O [ANGIOTENSIN II HUMAN] | 52.67
Nc1ncnc2c1ncn2[C@@H]1O[C@H](COP(=O)([O-])OP(=O)([O-])OP(=O)(O)O)[C@@H](O)[C@H]1O.[Na+].[Na+] [Adenosine 5′-Triphosphate Disodium] | −49.53
CCCCC/C=C\C/C=C\C/C=C\C/C=C\CCCC(=O)O [Arachidonic acid] | −35.91
CC1=C(/C=C/C(C)=C/C=C/C(C)=C/C=C/C=C(C)/C=C/C=C(C)/C=C/C2=C(C)C(=O)[C@@H](O)CC2(C)C)C(C)(C)C[C@H](O)C1=O [Astaxanthin] | 10.19
CC1=C(/C=C/C(C)=C/C=C/C(C)=C/C=C/C=C(C)/C=C/C=C(C)/C=C/C2=C(C)C[C@@H](O)CC2(C)C)C(C)(C)CCC1 [BETA-CRYPTOXANTIIIN] | 36.95
C[N+](C)(C)CC(=O)O [BETAINE] | −69.21
O=C(O)CCCC[C@@H]1SC[C@@H]2NC(=O)N[C@@H]21 [BIOTIN, POWDER,, BIOTIN] | −24.34
